# From the supplement of paper PMC4166925
# ± gives the standard deviation of the averaged measurements. Over roughly 33,000 sequences, “E-score (dimensionless, -0.5 to 0.5)” has its median near -0.046; the highest 2% begin near 0.36. The list shows a part of the results.
# Tested on: T1, SpTbr T-box DNA-binding domain (GST fusion)
# T1 sequence: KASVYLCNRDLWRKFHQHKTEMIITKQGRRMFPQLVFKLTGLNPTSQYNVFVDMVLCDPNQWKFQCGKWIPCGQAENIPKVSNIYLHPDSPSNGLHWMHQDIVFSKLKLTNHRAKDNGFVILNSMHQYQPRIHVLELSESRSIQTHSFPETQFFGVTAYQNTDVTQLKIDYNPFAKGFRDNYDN
# Assay: PBM E-score of 8-mer (E-score (dimensionless, -0.5 to 0.5)); Tbr is Tbrain of the sea star Patiria miniata (Pm) or the sea urchin Strongylocentrotus purpuratus (Sp); higher = stronger binding preference; most listed sequences are background and not binding sites
# Settings: the construct has about 5 more residues each side
# In short: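 Primer extension turned Universal Agilent oligonucleotide arrays double-stranded. They were incubated with 200 nM protein in PBS (pH 7.5); the protein was a GST-fused Tbr T-box DNA-binding domain expressed in BL21 E. coli at 20 °C and purified on glutathione. Every ungapped 8-mer was scored from the scanned, quantified probe intensities, and the Universal PBM Analysis Suite gave each an enrichment E-score averaged over duplicate arrays.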
row,Sequence,PBM E-score of 8-mer
1,CAGTCGAG,-0.0184 ± 0.03
2,ACATAAAT,0.0269 ± 0.015
3,AAAGAATG,-0.101 ± 0.13
4,GACCTGGA,-0.126 ± 0.0018
5,AACCTCCT,0.00779 ± 0.035
6,GCCCCACC,-0.0262 ± 0.0077
7,AGTGGCCC,-0.195 ± 0.041
8,CAATCCGA,-0.103 ± 0.05
9,AGCCTAAC,0.0322 ± 0.051
10,ACCAAAAC,-0.0482 ± 0.03
11,ACCGGGAG,0.0271 ± 0.021
12,ATGTCTCC,-0.104 ± 0.016
13,TAACACTA,0.373 ± 0.042
14,GGACCGGA,-0.0403 ± 0.038
15,AGGACCGG,-0.327 ± 0.032
16,GAATATCA,0.00497 ± 0.031
17,CGTGAAGA,0.277 ± 0.024
18,CTGGACGC,-0.142 ± 0.0062
19,GGCAGCCA,0.0468 ± 0.083
20,CCTTCTTA,0.0334 ± 0.047
21,CAGATCCC,-0.0125 ± 0.036
22,CACAACCG,0.0996 ± 0.024

row,Sequence,PBM E-score of 8-mer
1,ATAAGATC,-0.294 ± 0.079
2,ATGTGGAC,-0.0585 ± 0.08
3,CTACTTGA,0.0916 ± 0.062
4,GCTCTAGA,-0.219 ± 0.035
5,ATGGACGA,-0.115 ± 0.045
6,TATTCCAA,-0.156 ± 0.056
7,TCGACCAA,-0.138 ± 0.024
8,GTGGCGTA,0.18 ± 0.042
9,GCGTAGAC,-0.0968 ± 0.063
10,CTGTTACC,0.1316 ± 0.001
11,ACCGGCGC,0.0708 ± 0.088
12,ATGTTGTG,0.19 ± 0.003
13,CATTCTTA,-0.21 ± 0.037
14,AGGAACTG,-0.0528 ± 0.009
15,ACCGCCAA,0.135 ± 0.045
16,CATGCTGG,-0.2357 ± 0.0008
17,CTCTGATC,-0.295 ± 0.028
18,ATCCAAGA,-0.146 ± 0.013
19,CGCCAAAA,0.0918 ± 0.039
20,ACTTCGAC,0.189 ± 0.025
21,GACGAGCA,-0.152 ± 0.046
22,ACGACAGA,-0.0974 ± 0.035

row,Sequence,PBM E-score of 8-mer
1,GTGGAATA,-0.0578 ± 0.064
2,ACTCCGCG,-0.0356 ± 0.025
3,TGAGATAA,0.0687 ± 0.09
4,AACTGCCA,0.143 ± 0.063
5,AGCGCATA,-0.00709 ± 0.06
6,CGCTCAGA,-0.0699 ± 0.017
7,CCTTCGGA,-0.0212 ± 0.0018
8,AGCATACG,0.00432 ± 0.048
9,ATCCCACG,0.0622 ± 0.046
10,CTTAGGTC,-0.167 ± 0.044
11,CCTATAGC,-0.123 ± 0.051
12,ACGTCATA,-0.0433 ± 0.0045
13,CTAATATC,-0.136 ± 0.0072
14,GCCAGATA,-0.113 ± 0.047
15,ACCATCAA,-0.0776 ± 0.011
16,CCGTCAGC,0.147 ± 0.028
17,CTCACTAA,0.125 ± 0.0095
18,CGACTTTC,0.157 ± 0.043
19,GCACAGTA,-0.0331 ± 0.042
20,CATGGGAC,-0.242 ± 0.075
21,GCAGGGCC,-0.226 ± 0.13
22,AACGGTCA,0.174 ± 0.042

row,Sequence,PBM E-score of 8-mer
1,AGTCCTTG,-0.0449 ± 0.074
2,GATGGCAA,0.06 ± 0.098
3,GGACGGAC,-0.176 ± 0.0025
4,TAAAGCTA,-0.171 ± 0.036
5,CGCCGCTA,0.0573 ± 0.02
6,AGTGCCCA,-0.116 ± 0.045
7,CGCAAGAA,0.0773 ± 0.0057
8,CCGAGACG,-0.121 ± 0.015
9,AACTGCCG,-0.0509 ± 0.053
10,GCAAGAAA,-0.0699 ± 0.06
11,ATCGTATC,-0.0937 ± 0.063
12,AATACCGG,-0.22 ± 0.049
13,ATCGTCAG,-0.000445 ± 0.032
14,CTACTGCA,-0.122 ± 0.0076
15,ATCACTGA,0.052 ± 0.049
16,GAAATATA,0.0158 ± 0.037
17,CAAGAGAG,-0.276 ± 0.07
18,CGCCTGTC,0.269 ± 0.037
19,CAGTCAGG,-0.283 ± 0.06
20,TAGATACA,-0.248 ± 0.045
21,AAGGCGTC,0.372 ± 0.035
22,AACCACAG,-0.022 ± 0.086

row,Sequence,PBM E-score of 8-mer
1,GTCGAGGA,0.0275 ± 0.01
2,ACCATGCC,-0.133 ± 0.026
3,CAGGCCGG,-0.118 ± 0.0059
4,ACGAAATA,0.0499 ± 0.031
5,GCCGTACC,-0.226 ± 0.038
6,CAGTCCGA,-0.0998 ± 0.02
7,CCGTGGAG,0.138 ± 0.0056
8,CCTGCCCA,-0.0627 ± 0.0049
9,CCCTCATC,-0.124 ± 0.061
10,CATGCGAA,0.0898 ± 0.0084
11,CTGTAAAG,0.141 ± 0.037
12,CCTCGCAG,0.128 ± 0.0015
13,ACGCCAAT,0.18 ± 0.011
14,ATTGTGAG,0.25 ± 0.035
15,AATAGACG,-0.153 ± 0.17
16,TCATAAAA,-0.209 ± 0.12
17,CCGCGGGC,-0.0365 ± 0.035
18,CTAAATGA,-0.105 ± 0.0079
19,AAGCCCTC,-0.287 ± 0.02
20,AAAGTGGT,0.00031 ± 0.043
21,ACACATAC,0.274 ± 0.0089
22,ATCAAGCC,-0.0713 ± 0.049
